To fix the notation:
B1: OR4K15 (parent)
chain: GUUAACGGUCAUAGGCCAUGGAAACUAGGAGCACCAUUUCGCUGCCAGUGAAGAAAUGAACAAAGAAAAUCUGGGCCAGGCAGGCAUCAAAAGAAAUAGUCUUGCGCUCAACCAGAAAGUCUGUAAUCAUUUUAAGGGUA

The source gives no read counts; variants with many changes may rest on few reads.

The data set covers variants of B1. Put plainly: self-cleavage, relative activity (ratio to wild type); higher = more cleavage; in vitro, sequencing; the parent is a self-cleaving ribozyme.
For the variant A4G U39A U49C U130C A134G, the self-cleavage was 0.78. Take A5G A23G A114U: the self-cleavage is 0.33.

Regarding A5G A62G A96G, the self-cleavage was determined as 1.86.

A5C U19A A59G: the self-cleavage was 1.51. Turning to A5C A64G A118G, the self-cleavage stood at 0.93. With A4G U38A A67U A78U A86G A96C U97C, the self-cleavage stood at 0.14. On to A5G A54G A135U, for which the self-cleavage was 0.6. For U3C A33G A60G the value was 1.02.

In the case of A4G C61U A63G A69G A111U A114G U122A, the self-cleavage was 0.02.

Take A4G A78U C107A: the self-cleavage was found to be 0.04.

For A4G U12C G106U C113A, the self-cleavage came to 0. Consider U3C A62G U127C, for which the self-cleavage came out at 1.39. With A5G A23G U26C, the self-cleavage turned out to be 1.07. Take A5G A66G A114G G137A: the self-cleavage is 0.55. On to A4G U57C U100A, for which the self-cleavage stood at 0.43. Regarding A4G U49A A60G A78G, the self-cleavage came out at 0.63. The result for A4G A23G C34A A91G U97C U127C reads 0.54; that for U3C A51U A92G U102C C105A, 0.05. On to U3C A60U U87C, for which the self-cleavage came out at 1.44. Turning to A4G A36U A52U A89U, the self-cleavage amounted to 1.03. For U3C A68U U132C the value was 0.95.

On to A5G A33G A47U A51G A63U U87C A129C, for which the self-cleavage worked out at 0.26. In the case of A4G A24G A56G U87A, the self-cleavage is 1.38. In the case of A5G A67G A89U U97C U100C, the self-cleavage is 2.07.

Consider U3C A64G A66G A96G U122C U132C, for which the self-cleavage is 0.63. Consider U3C U37C U38C A96G, for which the self-cleavage was determined as 0.96. On to A5G A13G A22G A82G U102C, for which the self-cleavage was 1.16. As for A4G U102C A125U, the self-cleavage was found to be 2.14. Consider A5G A24G U38C A52G A78G A114C, for which the self-cleavage was 0.06. Turning to A4G G44A A63G A98G, the self-cleavage worked out at 0.69.

Turning to A5G A24U G44A A60G A82G, the self-cleavage is 0.78. Take A5C A67G A111U: the self-cleavage was determined as 0.19. Consider A5G A62G A94G U103G A114U, for which the self-cleavage was determined as 0.09. The result for U3C A51U A55G U72A A78G reads 0.06. As to A5G A55G U57G, the self-cleavage was determined as 0.94. In the case of A5G A56G A86U A89U G106A, the self-cleavage was determined as 0. For A5G A33G A52G A62U A67G C85U A95G the value was 0.97; for A4G A5U U9A A68U U100C, 2.09. In the case of A4G A52G A68G, the self-cleavage was determined as 1.08. U3C A24G U43C: the self-cleavage was found to be 0.37.

Regarding U3C A60G A64G, the self-cleavage was determined as 1.59.

A5G A62G G84A U130C U132C: the self-cleavage came out at 1.46. For A5G A36U A62G G83A U122C the value was 1.16; for A5G A11G A110U, 0.78. For the variant U3C A23U U43C A52G A69G A94G, the self-cleavage was 0.61. U3C A22G A91G A114G: the self-cleavage turned out to be 0.14. For A4G C61U U87C A89C the value was 0.87. On to A5G A68G U70C A95G U130G U133C, for which the self-cleavage came out at 1.47. A5C U9A A11U C32A U72A A116G U132C: the self-cleavage turned out to be 0.08. Turning to A5G A22G A30U U70C U103C, the self-cleavage was determined as 0.34. For the variant A5C A98G U132A, the self-cleavage came out at 0.38. The result for U3C A51U U72C U130C reads 0.06; that for A5G A11C A68G U108C U120G, 0.04; that for A4G A18G U57A, 1.48. On to U3C A24U A27U A91G, for which the self-cleavage is 1.9. For A4G U39C A94U, the self-cleavage came to 2. Turning to A4G C85U A89U A98U, the self-cleavage amounted to 0.75.

As to A4G A92G A118G, the self-cleavage was 0.89. Regarding A4U A5G A82G, the self-cleavage is 1.19. Consider A5G A62G A114G A125G, for which the self-cleavage stood at 0.1. For A5G A55G A135U, the self-cleavage stood at 0.61. In the case of U3C A24G A56G A92G, the self-cleavage is 1.49. Turning to A4G A18U U37C A69G, the self-cleavage is 2.58.

On to U3C A68G A86G, for which the self-cleavage amounted to 1.62. Take A5G A30U A36U U38C A51G U57A A89C A94G A140G: the self-cleavage came out at 1.06. Turning to U3G A36G A56G A110G, the self-cleavage stood at 0.04.

Regarding A5G A11G A36C A82G, the self-cleavage amounted to 0.7. U3C A22G A66G U108C U120C: the self-cleavage came to 0. With U3C A24G A52G G73A G83U U87A A94U U132A, the self-cleavage was 0.1. As to U3C A54G A66G, the self-cleavage was 1.16. As to U3C U70G A92G A116G, the self-cleavage stood at 0.55. Consider U3C A36G U49C, for which the self-cleavage is 1.3. Regarding U3C A52G A86U A96G, the self-cleavage stood at 0.89. The result for U3C U108A A116G U124G U132C reads 0.01; that for A4G U39C U57C, 0.19. For U3C A68G A86G A96G, the self-cleavage came out at 0.92. In the case of A5G A56G G79A A95G, the self-cleavage came out at 0.16. The result for A4G A56G A78G reads 0.68; that for A4G U39A A52G A86U U130C, 1.22; that for A5G A22G A67G A118G, 0.87.

As to A5G A52G A95G A96G, the self-cleavage stood at 0.64.

U3C C71A G93A A110U U139C A140G: the self-cleavage was determined as 0.77. Turning to A4G A59U A69G U132C, the self-cleavage stood at 0.8.

The values are drawn from the RNAGym collection of RNA variant scans (doi:10.7554/elife.90254).
